Read counts are not given, so values of variants with three or more changes are uncertain.
B1: CPEB3 Ribozyme (parent)
chain: UAACAGGGGGCCACAGCAGAAGCGUUCACGUCGCAGCCCCUGUCAGAUUCUGGUGAAUCUGCGAAUUCUGCUGUAUAUCUC

Variants of: B1
Assay: self-cleavage, relative activity (ratio to wild type); higher = more cleavage; in vitro, sequencing
Procedure, shortened: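 Libraries of CPEB3 self-cleaving ribozyme mutants came from rounds of error-prone PCR and carried barcodes, which DNA sequencing matched to variants. In vitro transcription used T7 RNA polymerase at 37°C for 5 hours, with a further 15 min in DNase I before EDTA stopped the reaction; the ribozymes cleaved during both steps. The RNA was reverse transcribed with template switching and sequenced on Illumina. Relative activity is the cleaved/total read fraction of a variant divided by that of the unmutated ribozyme, averaged over three batches with at least 5 reads.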

Row | Variant | self-cleavage
1 | A3U C14G U31A U60C A65G | 0.12
2 | A3U G9C G30U G33U U51G A64G U66C | 0.06
3 | A3U G7U U60C | 0.17
4 | A3U A28G G30U A35U | 0.16
5 | A3U A18U A20G C39U U49C U58C | 0.08
6 | A3U C11G C27U A57G U67A U72C U80A | 0.06
7 | A3U A18U A28C | 0.18
8 | A3U G8U U26A C62U | 0.05
9 | A3U A35C G52A G53A U66C U67C U80G | 0.15
10 | A3U A18G U26A A57G | 0.46
11 | A3U G9A U66C | 0.11
12 | A3U A18G U41A A45C U48A U78C | 0.25
13 | A3U C12G G30A A35U U41C U69A U80A | 0.06
14 | A3U G6A C37U A56G A57G U72C | 0.08
15 | A3U A18U U67C | 0.53
16 | A3U G9C A15G U31C U43C | 0.03
17 | A3U A35G U67C | 0.66
18 | A3U C37U U51A U72G | 0.59
19 | A3U C14A A20G U80C | 1.04
20 | A3U U25C A28U A47G A64G U76G | 0.08
21 | A3U C4A G63A U67A | 0.55

Row | Variant | self-cleavage
22 | A3U A28C U41A A47G U48C | 0.48
23 | A3U A28G A35U | 0.41
24 | A3U A28G A35G | 1.13
25 | A3U C38A U66C | 0.11
26 | A3U G9U U31C | 0.05
27 | A3U G9A A13G A28G | 0.17
28 | A3U C12U G30C U41C A75U | 0.09
29 | A3U A28U A65G A75U | 0.77
30 | A3U C12G A18G A65G U69A | 0.12
31 | A3U U25C A35G A56G U58A | 0.23
32 | A3U G8C C32G C37U A75G | 0.05
33 | A3U G8A U25C U54A U69C U78C | 0.07
34 | A3U A35U G46U | 0.25
35 | A3U G24C A28G C44A | 0.31
36 | A3U A64G U69C U72A A75G | 0.18
37 | A3U A28G C40A U48C U66C | 0.2
38 | A3U G19U U26A U51A U69C | 0.17
39 | A3U G6A U41A A64G U72C U76A | 0.08
40 | A3U C38U U49A | 0.44
41 | A3U A28U U48C U58A C71U | 0.14
42 | A3U A28U C71U | 0.38

Row | Variant | self-cleavage
43 | A3U A20G A28G A64U | 0.1
44 | A3U G10A A47G | 0.45
45 | A3U G9A A21G U60C C62U U78G | 0.13
46 | A3U A18U C29U A75G | 0.14
47 | A3U A21U A28G U43A | 0.12
48 | A3U C17G C40A A57G A77U | 0.05
49 | A3U A28U G42A U49C | 0.24
50 | A3U A20U C38U U48C U69C A75G | 0.11
51 | A3U A28G A64U U72C G73A U74C | 0.18
52 | A3U C12U A21G U60C U69C | 0.32
53 | A3U C29U U43A A64G G70A U72A | 0.08
54 | A3U A21G G61C U67C U69A | 0.08
55 | A3U C11G U51A U60C | 0.11
56 | A3U G6A A45G U49C U72C U80C | 0.06
57 | A3U C23U A57G A75G | 0.09
58 | A3U A21U A77G | 0.36
59 | A3U A57G A64U C68A U69A | 0.28
60 | A3U G19U C40U U43G U48C U60G | 0.34
61 | A3U G9U A35G A45G U51C A65U U76A | 0.06
62 | A3U G33U U51C U60C U66C U72C U78C | 0.12
63 | A3U A20U A35G U58A A75G | 0.34

Row | Variant | self-cleavage
64 | A3U G10A C40U U74C A75G | 0.32
65 | A3U C12G A13G U49C U66C U80A | 0.24
66 | A3U A21U G42A U69C G73A U80A | 0.24
67 | A3U C17G A18C C34U U72C | 0.36
68 | A3U C4U G8A A18U G33A U49C | 0.27
69 | A3U A35G C38U | 1.23
70 | A3U G9C U31A A35U C38U U67C U78C | 0.04
71 | A3U C14A C23A C27G U31C A45G U78C | 0.11
72 | A3U A21G U49C U72C | 0.1
73 | A3U A28G U60A G63A U76C | 0.24
74 | A3U A20U U41C U49A A57G | 0.31
75 | A3U A28C U49C | 0.45
76 | A3U A35G A57G | 1.35
77 | A3U G8U U41A | 0.33
78 | A3U A21G U43A | 0.56
79 | A3U G33A U43C A65G | 0.14
80 | A3U A47G U48A | 0.5
81 | A3U A28G U66C | 0.09
82 | A3U G10U A15G U58C C68A U69C U78C | 0.03
83 | A3U A35G C37U U48C A56U U69A U80C | 0.32

— the RNAGym collection of RNA variant scans (doi:10.1093/nar/gkz1192)
